Measurements: US11000038B2, “Pyridone compounds and agricultural and horticultural fungicides containing the same as active ingredients” (priority 2017, dated 2021)

Assays:
[1] = test system: wheat brown rust fungi (Puccinia recondita); assay: Test Example E: wheat brown rust, spray treatment of wheat plants; format: in vivo; details: spray treatment of wheat plants; control value=100{1-(n/3)}
[2] = test system: barley powdery mildew fungi (Blumeria graminis f. sp. hordei); assay: Test Example D: barley powdery mildew, spray treatment of barley plants; details: spray treatment of barley plants; control value=100{1-(n/3)}
[3] = test system: cabbage Alternaria sooty spot fungi (Alternaia brassicicola); assay: Test Example C: cabbage Alternaria sooty spot, spray treatment of cabbage plants; format: in vivo; details: spray treatment of cabbage plants; control value=100{1-(n/3)}
Source text: [Test Example C] Cabbage Alternaria Sooty Spot
Test plants (cabbage variety: Shikidori) were cultivated until the cotyledons extended after the sowing of seeds.
<Control Value> Control value=100{1−(n/3)}

[4] = test system: gray mold fungi (Botrytis cinerea); assay: Test Example B: tomato gray mold, spray treatment of tomato plants; details: spray treatment of tomato plants; control value=100{1-(n/3)}
[5] = test system: grape downy mildew fungus (Plasmopara viticola); assay: Test Example G: grape downy mildew, spray treatment of grape plants; details: 250 ppm spray, 2.5 ml/pot, grape Neomuscat; 7 to 10 days from inoculation

Row | Compound | Test E control value class (wheat brown rust) [1] | Test D control value class (barley powdery mildew) [2] | Test C control value class (cabbage Alternaria sooty spot) [3] | Test B control value class (tomato gray mold) [4] | Test G control value class (grape downy mildew) [5]
1 | Cc1ccccc1-n1cc(Cl)c(=O)c(Br)c1-c1c(F)cc(F)cc1F [Compound 62] | H (H shows the control value of more than 50%) | H (H shows the control value of more than 50%) | H (H shows the control value of more than 50%) | H (H shows the control value of more than 50%) | H (H shows the control value of more than 50%)
2 | Cc1ccccc1-n1cc(Cl)c(=O)c(Cl)c1-c1c(F)cc(F)cc1F [Compound 63] | H (H shows the control value of more than 50%) | H (H shows the control value of more than 50%) | H (H shows the control value of more than 50%) | H (H shows the control value of more than 50%) | L (L shows the control value of 50% or less)
3 | COc1cc(F)c(-c2c(Cl)c(=O)c(Cl)cn2-c2ccccc2C)c(F)c1 [Compound 64] | H (H shows the control value of more than 50%) | H (H shows the control value of more than 50%) | H (H shows the control value of more than 50%) | H (H shows the control value of more than 50%) | H (H shows the control value of more than 50%)
4 | COc1cc(F)c(-c2c(Br)c(=O)c(Cl)cn2-c2ccccc2C)c(F)c1 [Compound 65] | H (H shows the control value of more than 50%) | H (H shows the control value of more than 50%) | H (H shows the control value of more than 50%) | H (H shows the control value of more than 50%) | L (L shows the control value of 50% or less)
5 | Cc1ccccc1-n1cc(Br)c(=O)c(Cl)c1-c1c(F)cc(F)cc1F [Compound 66] | H (H shows the control value of more than 50%) | H (H shows the control value of more than 50%) | H (H shows the control value of more than 50%) | H (H shows the control value of more than 50%) | L (L shows the control value of 50% or less)
6 | COc1cc(F)c(-c2c(Br)c(=O)c(Br)cn2-c2ccccc2C)c(F)c1 [Compound 68] | H (H shows the control value of more than 50%) | H (H shows the control value of more than 50%) | H (H shows the control value of more than 50%) | H (H shows the control value of more than 50%) | H (H shows the control value of more than 50%)
7 | O=c1c(Cl)cn(CCCC(F)(F)F)c(-c2c(F)cc(F)cc2F)c1Cl [Compound 69] | H (H shows the control value of more than 50%) | L (L shows the control value of 50% or less) | H (H shows the control value of more than 50%) | L (L shows the control value of 50% or less) | L (L shows the control value of 50% or less)
